Earlier results in patent US4808614A (priority 1987, dated 1989).

Tested on: herpes virus
Conditions: cited from earlier work

SMILES	activity against herpes virus
O=c1[nH]c(=O)n([C@H]2C[C@H](O)[C@@H](CO)O2)cc1C=CBr [5-(2-bromovinyl)-2'-deoxyuridine]	potent agent against herpes virus
Nc1nc2c(ncn2COCCO)c(=O)[nH]1 [9-(2-hydroxyethoxymethyl)guanine]	potent antiviral agent, especially useful against herpes viruses
